{"source": "paper PMC4336329", "about": "(PLoS ONE, 2015)", "note": "Hit rate of the full screen: of about 310,000 compounds, about 14,000 (4.5%) showed an effect of 50% or more. Effects have a minus sign here. The list shows a part of the results.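 Also: peak tail current of the secondary pulse compared with the same well before compound.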", "data": [{"molecular_target": "human ether-à-go-go-related gene (hERG) potassium channel (human, UniProt Q12809)", "sequence (Q12809 whole entry, looked up)": "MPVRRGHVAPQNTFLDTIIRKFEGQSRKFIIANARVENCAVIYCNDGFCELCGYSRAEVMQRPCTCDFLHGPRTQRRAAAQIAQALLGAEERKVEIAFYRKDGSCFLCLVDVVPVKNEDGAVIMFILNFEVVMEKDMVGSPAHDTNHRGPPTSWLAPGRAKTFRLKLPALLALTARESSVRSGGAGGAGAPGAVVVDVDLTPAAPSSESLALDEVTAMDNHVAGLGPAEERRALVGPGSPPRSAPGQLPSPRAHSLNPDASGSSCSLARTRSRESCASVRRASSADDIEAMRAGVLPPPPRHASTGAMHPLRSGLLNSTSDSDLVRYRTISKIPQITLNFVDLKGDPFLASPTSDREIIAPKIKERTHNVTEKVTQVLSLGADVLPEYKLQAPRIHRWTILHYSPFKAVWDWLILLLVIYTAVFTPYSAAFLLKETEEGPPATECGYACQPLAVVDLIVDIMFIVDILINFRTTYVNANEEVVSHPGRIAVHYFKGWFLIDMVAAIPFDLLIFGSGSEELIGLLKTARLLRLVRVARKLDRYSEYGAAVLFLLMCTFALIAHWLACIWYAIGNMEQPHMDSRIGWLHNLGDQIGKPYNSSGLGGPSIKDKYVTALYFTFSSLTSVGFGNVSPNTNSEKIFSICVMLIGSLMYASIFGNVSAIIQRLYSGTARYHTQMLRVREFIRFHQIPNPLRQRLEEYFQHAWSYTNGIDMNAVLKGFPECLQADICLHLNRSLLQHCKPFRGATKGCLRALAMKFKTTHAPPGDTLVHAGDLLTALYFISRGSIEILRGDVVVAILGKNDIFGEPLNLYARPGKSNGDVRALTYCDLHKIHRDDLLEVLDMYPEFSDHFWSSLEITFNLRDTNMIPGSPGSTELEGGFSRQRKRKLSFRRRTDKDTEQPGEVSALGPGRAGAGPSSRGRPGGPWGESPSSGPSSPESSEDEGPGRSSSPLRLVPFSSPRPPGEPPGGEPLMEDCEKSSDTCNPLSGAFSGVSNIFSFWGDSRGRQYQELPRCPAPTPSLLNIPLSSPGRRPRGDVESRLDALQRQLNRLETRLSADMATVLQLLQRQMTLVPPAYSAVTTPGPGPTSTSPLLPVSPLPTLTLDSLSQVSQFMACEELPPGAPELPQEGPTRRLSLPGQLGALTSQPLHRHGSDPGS", "assay": "primary screen, population patch clamp on CHO cells stably expressing hERG", "units": {"hERG current change (%, negative = inhibition) at 10uM": "%"}, "values": [{"smiles": "Cn1c(SCc2nnc3n2CCCCC3)nc2ccccc21", "hERG current change (%, negative = inhibition) at 10uM": 3.08}, {"smiles": "CC(C)(C)c1cc(-c2n[nH]c(=S)n2-c2ccc(Cl)cc2)n[nH]1", "hERG current change (%, negative = inhibition) at 10uM": 17.3}, {"smiles": "CCC(Sc1nc2ccsc2c(=O)n1-c1ccc(Cl)c(C)c1)C(=O)NCc1ccco1", "note": "(stereo not drawn)", "hERG current change (%, negative = inhibition) at 10uM": -16.8}, {"smiles": "CCOC(=O)c1oc2c(C)c(O)ccc2c(=O)c1-c1nncn1-c1ccccc1", "hERG current change (%, negative = inhibition) at 10uM": 16.1}, {"smiles": "COc1ccc(C2(C(=O)NCCCN3CCOCC3)CCOCC2)cc1.Cl", "hERG current change (%, negative = inhibition) at 10uM": 10.6}, {"smiles": "CCN(CC)C(=O)/C=C/c1ccc(OC)c(S(=O)(=O)N2CCCCC2)c1", "hERG current change (%, negative = inhibition) at 10uM": 2.81}, {"smiles": "CCc1ccc(NC(=O)C(=O)NCCN2CCN(Cc3ccc([N+](=O)[O-])cc3)CC2)cc1", "hERG current change (%, negative = inhibition) at 10uM": -72.5}, {"smiles": "COc1cccc(-n2c(C)nnc2SCC#N)c1", "hERG current change (%, negative = inhibition) at 10uM": -11.7}, {"smiles": "CC1CN(C(=O)Cc2ccc(-c3ccccc3)cc2)CC(C)O1", "note": "(stereo not drawn)", "hERG current change (%, negative = inhibition) at 10uM": 0.547}, {"smiles": "CCOc1ccc(NC(=O)CN(C)C(=O)c2c(-c3ccccc3)noc2C)cc1OCC", "hERG current change (%, negative = inhibition) at 10uM": -14.5}, {"smiles": "O=C1N(CN2CCN(Cc3ccccc3)CC2)c2ccccc2C12OCCCO2", "hERG current change (%, negative = inhibition) at 10uM": 8.4}, {"smiles": "CNC(=O)c1sc(-c2ccccn2)nc1C", "hERG current change (%, negative = inhibition) at 10uM": 21.4}, {"smiles": "O=C(NCc1cccc(Cl)c1)C1=CC=CN2CCS(=O)(=O)N=C12", "hERG current change (%, negative = inhibition) at 10uM": -5.54}, {"smiles": "COc1ccc(N(Cc2ccco2)C(=O)c2ccccc2F)cc1OC", "hERG current change (%, negative = inhibition) at 10uM": 1.11}, {"smiles": "CCCNC(=O)N1[C@H]2CC[C@@H]1C(C(=O)OC)=C(c1cccc(OC)c1OC)C2", "hERG current change (%, negative = inhibition) at 10uM": 7.17}, {"smiles": "CC1=C(C)CC(C(=O)Nc2cccc(Cl)c2)C(C(=O)O)C1", "note": "(stereo not drawn)", "hERG current change (%, negative = inhibition) at 10uM": 9.8}, {"smiles": "CCCCC1CCC(C(=O)N(CCOC)c2c(N)n(CC(C)C)c(=O)[nH]c2=O)CC1", "note": "(stereo not drawn)", "hERG current change (%, negative = inhibition) at 10uM": 13}, {"smiles": "C/C(=N\\NC(=O)COc1c(C)cccc1C)c1cccs1", "hERG current change (%, negative = inhibition) at 10uM": 7.96}, {"smiles": "Cc1nnc(SCC(=O)Nc2ccc(Cl)cn2)n1Cc1ccccc1", "hERG current change (%, negative = inhibition) at 10uM": -16.7}, {"smiles": "COC(=O)N1CCN(c2ccc(C)cc2)C(C)C1", "note": "(stereo not drawn)", "hERG current change (%, negative = inhibition) at 10uM": 17}, {"smiles": "COc1ccc(C(=O)CC(=O)C(=O)Nc2ccc([N+](=O)[O-])cc2C)cc1", "hERG current change (%, negative = inhibition) at 10uM": 15.2}, {"smiles": "NNC(=O)c1ccc(Cn2cc(Cl)cn2)cc1", "hERG current change (%, negative = inhibition) at 10uM": -8.03}, {"smiles": "CCN(Cc1ccccc1)S(=O)(=O)c1ccc(C(=O)N(CCCN(C)C)c2nc3cc4c(cc3s2)OCO4)cc1.Cl", "hERG current change (%, negative = inhibition) at 10uM": -45.2}, {"smiles": "Cc1ccc(S(=O)(=O)NCCCNS(C)(=O)=O)cc1", "hERG current change (%, negative = inhibition) at 10uM": -1.26}, {"smiles": "O=C(NC12CC3CC(CC(C3)C1)C2)C1CCCN1C(=O)Nc1ccccc1", "note": "(stereo not drawn)", "hERG current change (%, negative = inhibition) at 10uM": 9.13}, {"smiles": "CC12CCC(C(=O)NCCCN3CCOCC3)(C(Br)C1=O)C2(C)C", "note": "(stereo not drawn)", "hERG current change (%, negative = inhibition) at 10uM": 8.83}, {"smiles": "CCCCOc1ccc(CSCCN)cc1Cl.Cl", "hERG current change (%, negative = inhibition) at 10uM": -4.84}, {"smiles": "Cc1cc2ncn(C(=O)c3c(-c4ccccc4Cl)noc3C)c2cc1C", "hERG current change (%, negative = inhibition) at 10uM": 10.1}, {"smiles": "CC(=O)c1sc(C(C)(C)C)cc1NC(=O)c1ccccc1C(=O)O", "hERG current change (%, negative = inhibition) at 10uM": 17.1}, {"smiles": "COc1cc2c3c(c1)-c1c(sn(-c4cc(OC)ccc4OC)c1=S)C(C)(C)N3C(=O)C2=O", "hERG current change (%, negative = inhibition) at 10uM": 8.61}, {"smiles": "Cc1ccccc1-n1c(O)c(/C=N/c2nccs2)c(=O)[nH]c1=O", "note": "[24811058]", "hERG current change (%, negative = inhibition) at 10uM": 16.9}, {"smiles": "Cc1cc(SCC(=O)c2cccs2)n2nc(C)c(-c3ccc(Cl)cc3)c2n1", "hERG current change (%, negative = inhibition) at 10uM": 5.12}, {"smiles": "CCCCCCc1ccc(-c2ncc(N)cn2)cc1", "hERG current change (%, negative = inhibition) at 10uM": -0.301}, {"smiles": "C=CCNc1nnc(Cc2ccc(C(C)C)cc2)c(=O)[nH]1", "hERG current change (%, negative = inhibition) at 10uM": -0.924}, {"smiles": "Cc1cnc(C(=O)Nc2ccccc2-c2ccc(C)o2)cn1", "hERG current change (%, negative = inhibition) at 10uM": 5.64}, {"smiles": "CCC(C)NC(=O)C1CCN(CCCc2ccccc2)CC1.O=C(O)C(=O)O", "note": "(stereo not drawn)", "hERG current change (%, negative = inhibition) at 10uM": -1.26}, {"smiles": "COc1ccc(Cc2noc(CN(C)Cc3ccc(-n4cccn4)cc3)n2)cc1OC", "hERG current change (%, negative = inhibition) at 10uM": -47.2}, {"smiles": "COc1ncc(C2=CC(=O)CC(C)(C)C2)cn1", "hERG current change (%, negative = inhibition) at 10uM": 2.5}, {"smiles": "C[N+]1(C)CC[C@H](OC(=O)[C@@](O)(c2ccccc2)C2CCCC2)C1.[Br-]", "hERG current change (%, negative = inhibition) at 10uM": -4.08}, {"smiles": "CCCc1c(C(=O)Nc2ccc(C(F)(F)F)cc2)cnn1-c1ccccc1", "hERG current change (%, negative = inhibition) at 10uM": 15.4}, {"smiles": "S=C(NC1CCCCC1)N1CCc2ccccc2C1", "hERG current change (%, negative = inhibition) at 10uM": -5.33}, {"smiles": "O=C(NCc1cccs1)C1CCC(CNS(=O)(=O)c2cccs2)CC1", "note": "(stereo not drawn)", "hERG current change (%, negative = inhibition) at 10uM": -2.36}, {"smiles": "CN(Cc1ccccc1)S(=O)(=O)c1nnc(NC(=O)c2ccccc2F)s1", "hERG current change (%, negative = inhibition) at 10uM": 1.89}, {"smiles": "CCc1ccc(NC(=O)CN(c2ccc3c(c2)OCO3)S(=O)(=O)c2c(C)noc2C)cc1", "hERG current change (%, negative = inhibition) at 10uM": 8.49}, {"smiles": "Cc1ccc(S(=O)(=O)N2CCN(Cc3ccccc3)CC2)c(C)c1N(C)S(=O)(=O)c1ccccc1", "hERG current change (%, negative = inhibition) at 10uM": 5.81}]}]}
